# Measurements as given in the supplement of paper PMC8728848.
# The other results are listed elsewhere or left out.
# Columns and labels:
# Assay in all cases: glycan array binding signal (z-score within array); higher = stronger binding
# Details in all cases: glycan notation: IUPAC condensed, linker removed; mutation: K348A
# [1] = target: Gal6S(b1-4)Glc
# Outline: (§1)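 Glycan array data came from 3228 arrays in the Consortium for Functional Glycomics database, and only arrays with an available protein sequence were kept. Glycan names were put into IUPAC-condensed notation, and columns mapping to the same glycan were averaged. The binding signal is a within-array Z-score, averaged across arrays of one protein sequence run at different concentrations or buffers and across linkers. A negative Z-score can be read as non-binding.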
# [2] = target: Gal6S(b1-4)Glc6S
# Outline: as §1
# [3] = target: Gal6S(b1-4)GlcNAc
# Outline: as §1
# [4] = target: Gal6S(b1-4)GlcNAc6S
# Outline: as §1
# [5] = target: GalNAc(a1-3)Gal
# Outline: as §1
# [6] = target: GalNAc(a1-3)GalNAc
# Outline: as §1
# [7] = target: GalNAc(b1-3)Gal
# Outline: as §1
# [8] = target: GalNAc(b1-3)Gal(a1-4)Gal(b1-4)GlcNAc
# Outline: as §1
# [9] = target: GalNAc(b1-3)GalNAc
# Outline: as §1
# [10] = target: GalNAc(b1-4)GlcNAc
# Outline: as §1
# [11] = target: Glc(a1-4)Glc
# Outline: as §1
# [12] = target: Glc(a1-6)Glc(a1-6)Glc
# Outline: as §1
# [13] = target: Glc(b1-4)Glc
# Outline: as §1
# [14] = target: Glc(b1-6)Glc
# Outline: as §1
# [15] = target: GlcA(b1-3)Gal
# Outline: as §1
# [16] = target: GlcA(b1-3)GlcNAc
# Outline: as §1
# [17] = target: GlcA(b1-6)Gal
# Outline: as §1
# [18] = target: GlcNAc(a1-3)Gal(b1-4)GlcNAc
# Outline: as §1
# [19] = target: GlcNAc(a1-6)Gal(b1-4)GlcNAc
# Outline: as §1
# [20] = target: GlcNAc(b1-2)Gal(b1-3)GalNAc
# Outline: as §1
# [21] = target: GlcNAc(b1-2)Man(a1-3)[GlcNAc(b1-2)Man(a1-6)]Man(b1-4)GlcNAc(b1-4)GlcNAc
# Outline: as §1
# [22] = target: GlcNAc(b1-3)Gal
# Outline: as §1
# [23] = target: GlcNAc(b1-3)Gal(b1-3)GalNAc
# Outline: as §1
# [24] = target: GlcNAc(b1-3)Gal(b1-4)Glc
# Outline: as §1
# [25] = target: GlcNAc(b1-3)Gal(b1-4)GlcNAc
# Outline: as §1
# [26] = target: GlcNAc(b1-3)Gal(b1-4)GlcNAc(b1-3)Gal(b1-4)GlcNAc
# Outline: as §1
# [27] = target: GlcNAc(b1-3)GalNAc
# Outline: as §1
# [28] = target: GlcNAc(b1-3)Man
# Outline: as §1
# [29] = target: GlcNAc(b1-3)[GlcNAc(b1-4)][GlcNAc(b1-6)]GlcNAc
# Outline: as §1
# [30] = target: GlcNAc(b1-3)[GlcNAc(b1-6)]Gal(b1-4)GlcNAc
# Outline: as §1
# [31] = target: GlcNAc(b1-3)[GlcNAc(b1-6)]GalNAc
# Outline: as §1
# [32] = target: GlcNAc(b1-4)Gal(b1-4)GlcNAc
# Outline: as §1
# [33] = target: GlcNAc(b1-4)GlcNAc
# Outline: as §1
# [34] = target: GlcNAc(b1-4)GlcNAc(b1-4)GlcNAc
# Outline: as §1
# [35] = target: GlcNAc(b1-4)GlcNAc(b1-4)GlcNAc(b1-4)GlcNAc(b1-4)GlcNAc
# Outline: as §1
# [36] = target: GlcNAc(b1-4)GlcNAc(b1-4)GlcNAc(b1-4)GlcNAc(b1-4)GlcNAc(b1-4)GlcNAc
# Outline: as §1
# [37] = target: GlcNAc(b1-4)[GlcNAc(b1-6)]GalNAc
# Outline: as §1
# [38] = target: GlcNAc(b1-6)Gal(b1-4)GlcNAc
# Outline: as §1
binder,measurement,setting,value
Surfactant Protein D (Human); Neck + Carbohydrate Recognition Domain (NCRD) (Homo sapiens) (protein) MLLFLLSALVLLTQPLGYLEAEMKTYSHRTMPSACTLVMCSSVESGLPGRDRDGREGPRGEKGDPGLPGAAGQAGMPGQAGPVGPKGDNGSVGEPGPKGDTGPSGPPGPPGVPGPAGREGALGKQGNIGPQGKPGPKGEAGPKGEVGAPGMQGSAGARGLAGPKGERGVPGERGVPGNTGAAGSAGAMGPQGSPGARGPPGLKGDKGIPGDKGAKGESGLPDVASLRQQVEALQGQVQHLQAAFSQYKKVELFPNGQSVGEKIFKTAQFVKPFTEAQLLCTQAGGQLASPRSAAENAALQQLVVAKNEAAFLSMTDSKTEGKFTYPTGESLVYSNWAPGEPNDDGGSEDCVEIFTNGKWNDRACGEARLVVCEF,glycan array binding signal (z-score),[1],-0.17
same,glycan array binding signal (z-score),[2],-0.171
same,glycan array binding signal (z-score),[3],-0.163
same,glycan array binding signal (z-score),[4],-0.146
same,glycan array binding signal (z-score),[5],-0.105
same,glycan array binding signal (z-score),[6],-0.168
same,glycan array binding signal (z-score),[7],-0.161
same,glycan array binding signal (z-score),[8],-0.163
same,glycan array binding signal (z-score),[9],-0.172
same,glycan array binding signal (z-score),[10],-0.165
same,glycan array binding signal (z-score),[11],-0.171
same,glycan array binding signal (z-score),[12],-0.172
same,glycan array binding signal (z-score),[13],-0.16
same,glycan array binding signal (z-score),[14],-0.169
same,glycan array binding signal (z-score),[15],-0.174
same,glycan array binding signal (z-score),[16],-0.16
same,glycan array binding signal (z-score),[17],-0.094
same,glycan array binding signal (z-score),[18],-0.161
same,glycan array binding signal (z-score),[19],-0.175
same,glycan array binding signal (z-score),[20],-0.166
same,glycan array binding signal (z-score),[21],-0.134
same,glycan array binding signal (z-score),[22],-0.158
same,glycan array binding signal (z-score),[23],-0.172
same,glycan array binding signal (z-score),[24],-0.178
same,glycan array binding signal (z-score),[25],-0.165
same,glycan array binding signal (z-score),[26],-0.175
same,glycan array binding signal (z-score),[27],-0.179
same,glycan array binding signal (z-score),[28],-0.18
same,glycan array binding signal (z-score),[29],-0.167
same,glycan array binding signal (z-score),[30],-0.177
same,glycan array binding signal (z-score),[31],-0.173
same,glycan array binding signal (z-score),[32],-0.163
same,glycan array binding signal (z-score),[33],-0.146
same,glycan array binding signal (z-score),[34],-0.125
same,glycan array binding signal (z-score),[35],-0.173
same,glycan array binding signal (z-score),[36],-0.169
same,glycan array binding signal (z-score),[37],-0.164
same,glycan array binding signal (z-score),[38],-0.175
